# Measured values from PubChem BioAssay (NCATS).
# Values joined by “and” are separate entries in the source; they are usually repeats but may differ in a detail not shown here. Identical values can stand only once. Inconclusive means that the source gave no clear call. Such entries were picked first, then a sample of the others. For some assays here: Potencies beside an inconclusive call are fits to weak or partial responses and may not hold up. Active and inactive are the calls of the source. The call rests on the fitted dose curve; in most records, active means well fitted curve in the direction sought with a large enough effect; inconclusive means small, poorly fitted or top-dose-only effect, or another doubt; inactive means no such curve, though single readings can be large; an effect the other way counts as inactive or inconclusive.
# Key:
# [1] = system: MKL-2; experiment: qHTS assay to identify novel small-molecules to repurpose for Merkel cell carcinoma treatment (AID 1296009); conditions: MCC and control cell lines, CellTiter-Glo viability, 72 h; series mostly up to 46 µM; further: nearly all actives have a fitted effect of over 60% in size
# Method in brief: (§1)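 Cell viability measured by CellTiter-Glo following 72 hr compound treatment at 37 degree celsius, with NPC and MIPE libraries tested in 8- and 11-point concentration series.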
# [2] = system: WaGa; experiment: as above; conditions: MCC and control cell lines, CellTiter-Glo viability, 72 h; series mostly up to 46 µM
# Method in brief: as §1
# [3] = system: C33A; experiment: Primary qHTS to identify gynecologic anti-cancer compounds using libraries of approved drugs and bioactive compounds (AID 1345084); conditions: Gynecologic cancer cell panel viability, ATPlite luminescence, 48 h; series mostly up to 57.5 µM; further: nearly all actives have a fitted effect of over 55% in size
# Method in brief: (§2)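 48 h compound exposure at 37 C, 5% CO2; five-point qHTS. ATPlite luminescence readout of cell ATP.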
# [4] = system: CAOV3; experiment: as above; conditions: Gynecologic cancer cell panel viability, ATPlite luminescence, 48 h; series mostly up to 57.5 µM
# Method in brief: as §2
# [5] = system: CASKI; experiment: as above; conditions: Gynecologic cancer cell panel viability, ATPlite luminescence, 48 h; series mostly up to 57.5 µM
# Method in brief: as §2
# [6] = system: Es-2; experiment: as above; conditions: Gynecologic cancer cell panel viability, ATPlite luminescence, 48 h; series mostly up to 57.5 µM
# Method in brief: as §2
# [7] = system: HeLa; experiment: as above; conditions: Gynecologic cancer cell panel viability, ATPlite luminescence, 48 h; series mostly up to 57.5 µM
# Method in brief: as §2
# [8] = system: Hek293T; experiment: as above; conditions: Gynecologic cancer cell panel viability, ATPlite luminescence, 48 h, control line for the selectivity index; series mostly up to 57.5 µM
# Method in brief: as §2
# [9] = system: JEG-3; experiment: as above; conditions: Gynecologic cancer cell panel viability, ATPlite luminescence, 48 h; series mostly up to 57.5 µM
# Method in brief: as §2
# [10] = system: OV90; experiment: as above; conditions: Gynecologic cancer cell panel viability, ATPlite luminescence, 48 h; series mostly up to 57.5 µM
# Method in brief: as §2
# [11] = system: PA-1; experiment: as above; conditions: Gynecologic cancer cell panel viability, ATPlite luminescence, 48 h; series mostly up to 57.5 µM
# Method in brief: as §2
# [12] = system: SKOV3; experiment: as above; conditions: Gynecologic cancer cell panel viability, ATPlite luminescence, 48 h; series mostly up to 57.5 µM
# Method in brief: as §2
# [13] = system: UISO; experiment: qHTS assay to identify novel small-molecules to repurpose for Merkel cell carcinoma treatment (AID 1296009); conditions: MCC and control cell lines, CellTiter-Glo viability, 72 h; series mostly up to 46 µM; further: nearly all actives have a fitted effect of over 60% in size
# Method in brief: as §1
# Potency means the concentration at half of the fitted maximal effect; tags describe the fitted curve by direction and shape.
smiles,measurement,setting,value
COc1ccc(O)cc1,Potency,[1],"inconclusive: 15 µM [inhibitor, single point]"
CC(C=CC1=C(C)CCCC1(C)C)=CC=CC(C)=CC(=O)O,Potency,[1],"inconclusive: 18.7 µM [inhibitor, partial curve, poor fit]"
same,Potency,[2],"inactive and inconclusive: 20.9 µM [inhibitor, partial curve]"
COc1ccc(CC2=NN3C([C@@H](CCc4ccccc4)[C@@H](C)O)=NC(C)C3C(=O)N2)cc1OC (some centres not stated),Potency,[1],inactive
Cc1cnc(Nc2ccc(OCCN3CCCC3)cc2)nc1Nc1cccc(S(=O)(=O)NC(C)(C)C)c1,Potency,[1],"inconclusive: 37.2 µM [inhibitor, single point]"
same,Potency,[3],"inconclusive: 1.41 µM [cytotoxic, full curve]"
same,Potency,[4],active: 10 µM
same,Potency,[5],active: 14.1 µM
same,Potency,[6],"inconclusive: 17.8 µM [cytotoxic, partial curve, poor fit]"
same,Potency,[7],active: 7.08 µM
same,Potency,[8],"inconclusive: 25.1 µM [cytotoxic, partial curve]"
same,Potency,[9],active: 12.6 µM
same,Potency,[10],active: 17.8 µM
same,Potency,[11],active: 8.91 µM
same,Potency,[12],active: 7.94 µM
Nc1ccc(C(=O)O)c(O)c1,Potency,[13],inactive
same,Potency,[7],inactive
